Some test systems named below: HCC-1143; HCC-1187; MDA-468; SUM-149.
Assay in all cases: cell viability relative to vehicle (% of vehicle); basal-like triple-negative breast cancer lines; higher = less cytotoxic
Holding throughout (details): 10 µM; 72 h

This is one part of the list. Single values are uncertain, as repeats are few or missing.
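Note: stably firefly luciferase-GFP labeled cells in 96-well plates, viability read as luciferase photon flux after d-luciferin addition, treated wells normalized to vehicle wells, single-dose high-throughput screen.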

Regarding `CCN1CCN(C(=O)NC(C(=O)NC2C(=O)N3C(C(=O)O)=C(CSc4nnnn4C)CSC23)c2ccc(O)cc2)C(=O)C1=O` (stereo unspecified) [Cefoperazone], the cell viability was 81.6 with HCC-1143, 98.7 in the experiment on HCC-1187, 104 with MDA-468 and 109 with SUM-149.
For `CC1CCc2c(N3CCC(O)CC3)c(F)cc3c(=O)c(C(=O)O)cn1c23` (stereo unspecified) [Nadifloxacin], in that order: 69.3, 85.6, 89.7 and 120.
`COc1cc(Nc2ncc3c(n2)-c2ccc(Cl)cc2C(c2c(F)cccc2OC)=NC3)ccc1C(=O)O` [MLN8237 (Alisertib)]: the cell viability came to 66.2 with HCC-1143, 52.7 in the experiment on HCC-1187, 39.3 with MDA-468 and 86.5 in the experiment on SUM-149.
For `CCCCCCCCCCCC(CC1OC(=O)C1CCCCCC)OC(=O)C(CC(C)C)NC=O` (stereo unspecified) [Orlistat], in that order: 72.3, 101, 112 and 84.6.
For `CNC(=O)C(Cc1c[nH]c2ccccc12)NC(=O)C(CC(=O)NO)CC(C)C` (stereo unspecified), in that order: 82.3, 62, 69.5 and 72.3.
Consider `CCOC(=O)C1=C(C)NC(C)=C(C(=O)OC)C1c1cccc(Cl)c1Cl` (stereo unspecified) [Felodipine], for which the cell viability with HCC-1143 was 85.6; with HCC-1187 it was 82.3; in the experiment with MDA-468, 99.8; in the experiment on SUM-149, 113.
As for `CC1OC(OC2C(CO)OC(OC3C(CO)OC(O)C(O)C3O)C(O)C2O)C(O)C(O)C1NC1C=C(CO)C(O)C(O)C1O` (stereo unspecified) [Acarbose], the cell viability was determined as 89.1 with HCC-1143, 118 in the experiment on HCC-1187, 97.7 with MDA-468 and 103 in the experiment on SUM-149.
In the case of `CO[C@H]1/C=C/O[C@@]2(C)Oc3c(C)c(O)c4c(O)c(c(/C=N/N5CCN(C6CCCC6)CC5)c(O)c4c3C2=O)NC(=O)/C(C)=C\C=C\[C@H](C)[C@H](O)[C@@H](C)[C@@H](O)[C@@H](C)[C@H](OC(C)=O)[C@@H]1C` [Rifapentine], the cell viability in the experiment with HCC-1143 stood at 82.5; with HCC-1187, 71.4; in the experiment with MDA-468, 92.9; with SUM-149, 112.
For `Cl.N=C(N)N` [Guanidine HCl], in that order: 87.8, 116, 109 and 92.1.
For `Cc1ccccc1C(OCCN(C)C)c1ccccc1.O=C(O)CC(O)(CC(=O)O)C(=O)O` (stereo unspecified) [Orphenadrine Citrate], in that order: 85, 89.7, 102 and 108.
On the same counts, the results for `O=C(CCCCCCC(=O)Nc1ccccc1)NO` [Vorinostat (SAHA, MK0683)] are 58.8, 59.6, 87.6 and 6.98.
Consider `CC(C)c1nc(CN(C)C(=O)NC(C(=O)NC(Cc2ccccc2)CC(O)C(Cc2ccccc2)NC(=O)OCc2cncs2)C(C)C)cs1` (stereo unspecified) [Ritonavir], for which the cell viability is 84.8 with HCC-1143, 100 in the experiment on HCC-1187, 82.4 in the experiment on MDA-468 and 106 in the experiment with SUM-149.
For `O=c1[nH]c(=O)n(C2CCCO2)cc1F` (stereo unspecified), in that order: 91.7, 113, 87.5 and 79.3.
On the same counts, the results for `COc1ccccc1OCC(O)CO` (stereo unspecified) [Guaifensin] are 89, 76.8, 99.5 and 107.
On the same counts, the results for `CC(C)C(N)C(=O)OCC(CO)OCn1cnc2c(=O)nc(N)[nH]c21.Cl` (stereo unspecified) [Valganciclovir HCl] are 68, 88.4, 111 and 115.
Regarding `O=C(Nc1cccc2c(=O)cc(-c3nn[nH]n3)oc12)c1ccc(OCCCCc2ccccc2)cc1` [Pranlukast], the cell viability in the experiment on HCC-1143 was 74.6; in the experiment on HCC-1187, 88.4; in the experiment with MDA-468, 99.6; in the experiment with SUM-149 it was 99.7.
Turning to `OCC(O)CN1CCN(c2ccccc2)CC1` (stereo unspecified) [Dropropizine], the cell viability in the experiment on HCC-1143 was 66.8; with HCC-1187, 101; in the experiment on MDA-468 it was 105; in the experiment with SUM-149 it was 98.9.
For `Brc1c(NC2=NCCN2)ccc2nccnc12.O=C(O)C(O)C(O)C(=O)O` [Brimonidine Tartrate], in that order: 94, 112, 115 and 92.5.
On the same counts, the results for `CN1CCCC1c1cccnc1.O=C(O)C(O)C(O)C(=O)O.O=C(O)C(O)C(O)C(=O)O` (stereo unspecified) [Nicotine Difartrate] are 86.4, 117, 118 and 92.5.
For `CCCCCCCCCCCCCCCC(=O)OCC=C(C)C=CC=C(C)C=CC1=C(C)CCCC1(C)C` [Retinyl (Vitamin A) Palmitate], in that order: 70.2, 92, 113 and 106.
As to `CC(C)Cn1cnc2c(N)nc3ccccc3c21` [Imiquimod], the cell viability was 78.8 with HCC-1143, 104 in the experiment on HCC-1187, 115 in the experiment on MDA-468 and 97.6 with SUM-149.
On the same counts, the results for `CC(C)(Oc1ccc(CCNC(=O)c2ccc(Cl)cc2)cc1)C(=O)O` [Bezafibrate] are 99.2, 124, 105 and 99.7.
As to `OCC(O)C(O)C(O)CO` (stereo unspecified) [Xylitol], the cell viability stood at 81 in the experiment on HCC-1143, 82 with HCC-1187, 114 in the experiment on MDA-468 and 109 in the experiment on SUM-149.
As to `Cc1cccc(Nc2ccccc2C(=O)O)c1C` [Mefenamic Acid], the cell viability is 87.8 in the experiment with HCC-1143, 77.7 in the experiment with HCC-1187, 108 in the experiment on MDA-468 and 106 in the experiment on SUM-149.

The values are drawn from the supplement of paper PMC8512760.
